Measurements as given in patent US8933202B2, “AXL antibodies” (U3 Pharma GmbH, priority 2007, dated 2015).

Tests used:
Akt-Kinase = Akt-Kinase (Ser473) phosphorylation ELISA; type: cell-based; conditions: 400 ng/ml Gas6; for ligand-mediated Akt-Kinase activation, rat versus chimeric antibody: 50 ng/ml to 1 μg/ml (11B7, ch11B7) or to 10 μg/ml (11D5, ch11D5), NIH3T3-AXL cl.7
Protocol: Furthermore, ELISA experiments were performed in order to investigate whether the rat anti-AXL antibodies of the invention are able to block ligand Gas6-mediated activation of Akt-Kinase. Gas6-mediated Akt-Kinase activation was detected by increased protein (Ser473) phosphorylation. In brief, on day 1. 2×10^4 cells per well were seeded in flat-bottom 96 well plates. The next day, normal growth medium was replaced by serum-reduced (DMEM, 0.5% FCS for NIH3T3-AXL cl.7 fibroblasts) or serum-free (for cancer cell lines) medium to starve cells for 36 h. […] Medium was flicked out and cells were fixed with 4% formaldehyde in PBS (pH 7.5) for 30 min at room temperature. Formaldehyde solution was removed and cells were washed twice with wash buffer (PBS, 0.1% Tween 20). Cells were quenched with 1% H2O2, 0.1% NaN3 in wash buffer and incubated for 20 min at room temperature. Afterwards, the quenching solution was removed, and cells were washed twice with wash buffer and blocked with PBS, 0.5% BSA for 4 h at 4° C. Anti-phospho-Akt (Ser473) primary antibody (polyclonal rabbit; Cell Signaling #9271) diluted 1:500 in PBS, 0.5% BSA, 5 mM EDTA was added over night at 4° C. On day 4, the antibody solution was removed and the plate was washed 3× with wash buffer. HRP-conjugated anti-rabbit secondary antibody (Dianova #111-036-045) diluted 1:2,500 in PBS, 0.5% BSA was then added to each well and incubated for 1.5 h at room temperature. The plate was washed 3× with wash buffer and twice with PBS for 5 min each. Tetramethylbenzidine (TMB, Calbiochem) was added and monitored at 620 nm.
In order to investigate whether the rat anti-AXL antibodies of the invention and the corresponding chimeric anti-AXL antibodies of the invention were able to block ligand Gas6-mediated activation of the Akt-Kinase in NIH3T3-AXL cl.7 fibroblasts to similar extent, ELISA experiments were performed. Antibody-mediated Akt-Kinase inhibition was detected by decreased protein (Ser473) phosphorylation. In brief, on day 1. […] Tetramethylbenzidine (TMB, Calbiochem) was added and monitored at 620 nm.

[1] = system: serum-starved NIH3T3-AXL cl.7 fibroblasts; experiment: Caspase-3/7 assay, Gas6-mediated anti-apoptosis; type: cell-based; conditions: 10 μg/ml antibody, with or without 400 ng/ml Gas6, compared to isotypic control antibody
From the text: Induction of apoptosis and activation of caspases can result from a variety of stimuli including growth factor withdrawal, exposure to chemotherapeutic agents or radiation, or initiation of the Fas/Apo-1 receptor-mediated cell death process. […] In the present example we examined whether rat anti-AXL antibodies of the invention interfere with Gas6-mediated anti-apoptosis of serum-starved NIH3T3-AXL cl.7 fibroblasts, and thus induce apoptosis. Apoptosis rates were thereby determined by measurement of the cellular caspase-3/7 activity. For this purpose, NIH3T3-AXL cl.7 cells were seeded at a density of 1.5×10^3 cells per well in black clear-bottom 96 well plates (100 μl/well). The day after, normal growth medium was replaced by serum-reduced medium (DMEM, 0.5% FCS) to starve cells over night for 24 h. […] The cells were washed with PBS, covered with 60 μl of DMEM, 0% FCS, 0.01% BSA, and 10 μl of the respective antibody solution were added. After 1 h incubation at 37° C., 10 μl of DMEM, 0% FCS, 0.01% BSA with or without 3.2 μg/ml mouse Gas6 (R&D Systems) were added (the final concentrations of antibody and Gas6 were 10 μg/ml and 400 ng/ml, respectively), and cells were incubated at 37° C. for another 5 h. […] Using a Victor plate reader (Perkin Elmer), the fluorescence of each well was measured at an excitation wavelength of 485 nm and an emission wavelength of 530 nm.

p42/p44 MAP-Kinase = p42/p44 MAP-Kinase phosphorylation ELISA; type: cell-based, human; conditions: 10 μg/ml antibody, 400 ng/ml Gas6; CaSki cervical cancer cells
Protocol: Next, ELISA experiments were performed in order to investigate whether the rat anti-AXL antibodies of the invention are able to block ligand Gas6-mediated activation of p42/p44 MAP-Kinase. Gas6-mediated p42/p44 MAP-Kinase activation was detected by increased protein (Thr202/Tyr204) phosphorylation. In brief, on the first day, 2×10^4 cells per well were seeded in flat-bottom 96 well plates. The next day, normal growth medium was replaced by serum-free medium to starve cells for 36 h. […] Medium was flicked out and cells were fixed with 4% formaldehyde in PBS (pH 7.5) for 30 min at room temperature. Formaldehyde solution was removed and cells were washed twice with wash buffer (PBS, 0.1% Tween 20). Cells were quenched with 1% H2O2, 0.1% NaN3 in wash buffer and incubated for 20 min at room temperature. Afterwards, the quenching solution was removed, and cells were washed twice with wash buffer and blocked with PBS, 0.5% BSA for 4 h at 4° C. Anti-phospho-p42/p44 MAP Kinase (Thr202/Tyr204) primary antibody (polyclonal rabbit; Cell Signaling #9101) diluted 1:500 in PBS, 0.5% BSA, 5 mM EDTA was added over night at 4° C. On day 4, the antibody solution was removed and the plate was washed 3× with wash buffer. […] Tetramethylbenzidine (TMB, Calbiochem) was added and monitored at 620 nm.

B1: ch11B7: chimeric anti-AXL antibody, derivative of rat 11B7 (antibody)
heavy: EVQLQESGPGLVKPSQSLSLTCSVTGYSITSNYWGWIRKFPGDKMEWMGYITYSGSTSYNPSLKSRISITRDTSKNQFFLQLNSVTSEDTATYYCAITTFYYWGQGVMVTVSS[left out - human IgG1 constant region]
light: DIQMTQAPSSLPASLGDRVTITCRASQDIGNYLRWFQQKPGKSPRLMISGATNLAAGVPSRFSGSRSGSDYSLTISSLESEDMADYYCLQSKESPWTFGGGTKLELKRTVAAPSVFIFPPSDEQLKSGTASVVCLLNNFYPREAKVQWKVDNALQSGNSQESVTEQDSKDSTYSLSSTLTLSKADYEKHKVYACEVTHQGLSSPVTKSFNRGEC
With B1 the “ligand-mediated Akt-Kinase activation, rat versus chimeric antibody” value (Akt-Kinase) was “able to inhibit ligand-mediated Akt-Kinase activation to similar extent”.

B2: 11D5: antagonistic rat anti-AXL monoclonal antibody, rat IgG2a (antibody)
heavy: EVQLQESGPGLVKPSQSLSLTCSVTGYSITSNYWGWIRKFPGNKMEWIGHITNSGNTTYNPSLKSRISISRDTSRNQFFLQLNSVTTEDTATYYCAKGAFDYWGQGVMVTVSS[left out - human IgG1 constant region]
light: DIQMTQSPSSMSTSLGDRVTITCRASQDIGNYLSWFQQKVGKSPRRMIYGAIKLAVGVPSRFSGSRSGSDYSLTISSLESEDMAIYYCLQYIQFPLTFGSGTKLELKRTVAAPSVFIFPPSDEQLKSGTASVVCLLNNFYPREAKVQWKVDNALQSGNSQESVTEQDSKDSTYSLSSTLTLSKADYEKHKVYACEVTHQGLSSPVTKSFNRGEC
modifications: 11D5 HC gamma1; 11D5 LC kappa
notes: antagonistic rat anti-AXL monoclonal antibody, rat IgG2a
With B2 the “anti-apoptosis (caspase-3/7 activity)” value [1] was “reduced Gas6-mediated anti-apoptosis”, the “ligand-mediated p42/p44 MAP-Kinase activation (phosphorylation)” value (p42/p44 MAP-Kinase) was “able to reduce ligand-mediated p42/p44 MAP-Kinase activation” and the “ligand-mediated Akt-Kinase activation, rat versus chimeric antibody” value (Akt-Kinase) was “able to inhibit ligand-mediated Akt-Kinase activation to similar extent”. The “ligand-mediated Akt-Kinase activation (phosphorylation)” value (Akt-Kinase; 10 μg/ml antibody, NIH3T3-AXL cl.7 fibroblasts and CaLa-1 lung cancer cells) was “able to block or reduce ligand-mediated Akt-Kinase activation”.
